Experimental data as given in PMC9911399, “Two distinct binding modes provide the RNA-binding protein RbFox with extraordinary sequence specificity”.
Changes are numbered by the printed parent chain; changes in the protein carry UniProt numbers. The list shows a part of the results.

T1: RBFOX1 RRM RbFoxmut (Fox-RRM*) (Homo sapiens, UniProt Q9NWB1 109-208, R118D;E147R;N151S;E152T)
T1 sequence: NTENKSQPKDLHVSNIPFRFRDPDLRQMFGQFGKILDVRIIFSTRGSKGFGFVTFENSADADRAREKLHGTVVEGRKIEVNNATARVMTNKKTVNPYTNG

B1: UGGCCAG (DNA:RNA)
RNA: GGGAGACCGGAAUUCAGAUUGUCCUGGCCAGUUAAAUCCCGUCGUAGCCACCA
DNA 1: CAATCTGAATTCCGGTCTCCC
DNA 2: TGGTGGCTACGACGGGATT
B2: UUACUAU (DNA:RNA)
RNA: B1 RNA with G26U, G27A, C29U, G31U
DNA 1: CAATCTGAATTCCGGTCTCCC
DNA 2: TGGTGGCTACGACGGGATT
B3: UUGCGAC (DNA:RNA)
RNA: B1 RNA with G26U, C29G, G31C
DNA 1: CAATCTGAATTCCGGTCTCCC
DNA 2: TGGTGGCTACGACGGGATT
B4: GGAUGCU (DNA:RNA)
RNA: B1 RNA with U25G, G27A, C28U, C29G, A30C, G31U
DNA 1: CAATCTGAATTCCGGTCTCCC
DNA 2: TGGTGGCTACGACGGGATT
B5: GGACGGU (DNA:RNA)
RNA: B1 RNA with U25G, G27A, C29G, A30G, G31U
DNA 1: CAATCTGAATTCCGGTCTCCC
DNA 2: TGGTGGCTACGACGGGATT
B6: GCUUAGC (DNA:RNA)
RNA: GGGAGACCGGAAUUCAGAUUGUCCGCUUAGCUUAAAUCCCGUCGUAGCCACCA
DNA 1: CAATCTGAATTCCGGTCTCCC
DNA 2: TGGTGGCTACGACGGGATT
B7: CUCGUCG (DNA:RNA)
RNA: B1 RNA with U25C, G26U, G27C, C28G, C29U, A30C
DNA 1: CAATCTGAATTCCGGTCTCCC
DNA 2: TGGTGGCTACGACGGGATT
B8: GGUCAUG (DNA:RNA)
RNA: B6 RNA with C26G, U28C, G30U, C31G
DNA 1: CAATCTGAATTCCGGTCTCCC
DNA 2: TGGTGGCTACGACGGGATT
B9: CAGCCAG (DNA:RNA)
RNA: B1 RNA with U25C, G26A
DNA 1: CAATCTGAATTCCGGTCTCCC
DNA 2: TGGTGGCTACGACGGGATT
B10: AACUAUA (DNA:RNA)
RNA: B6 RNA with G25A, C26A, U27C, G30U, C31A
DNA 1: CAATCTGAATTCCGGTCTCCC
DNA 2: TGGTGGCTACGACGGGATT
B11: UGGCGAA (DNA:RNA)
RNA: B1 RNA with C29G, G31A
DNA 1: CAATCTGAATTCCGGTCTCCC
DNA 2: TGGTGGCTACGACGGGATT
B12: GGCUGCG (DNA:RNA)
RNA: B6 RNA with C26G, U27C, A29G, G30C, C31G
DNA 1: CAATCTGAATTCCGGTCTCCC
DNA 2: TGGTGGCTACGACGGGATT
B13: ACCUAAU (DNA:RNA)
RNA: B6 RNA with G25A, U27C, G30A, C31U
DNA 1: CAATCTGAATTCCGGTCTCCC
DNA 2: TGGTGGCTACGACGGGATT
B14: CACGGAU (DNA:RNA)
RNA: B1 RNA with U25C, G26A, G27C, C28G, C29G, G31U
DNA 1: CAATCTGAATTCCGGTCTCCC
DNA 2: TGGTGGCTACGACGGGATT
B15: GCUGGUG (DNA:RNA)
RNA: B6 RNA with U28G, A29G, G30U, C31G
DNA 1: CAATCTGAATTCCGGTCTCCC
DNA 2: TGGTGGCTACGACGGGATT
B16: GGCAAUC (DNA:RNA)
RNA: B6 RNA with C26G, U27C, U28A, G30U
DNA 1: CAATCTGAATTCCGGTCTCCC
DNA 2: TGGTGGCTACGACGGGATT
B17: CUAAACG (DNA:RNA)
RNA: B6 RNA with G25C, C26U, U27A, U28A, G30C, C31G
DNA 1: CAATCTGAATTCCGGTCTCCC
DNA 2: TGGTGGCTACGACGGGATT
B18: AUCGAGU (DNA:RNA)
RNA: B6 RNA with G25A, C26U, U27C, U28G, C31U
DNA 1: CAATCTGAATTCCGGTCTCCC
DNA 2: TGGTGGCTACGACGGGATT
B19: UGACCGG (DNA:RNA)
RNA: B1 RNA with G27A, A30G
DNA 1: CAATCTGAATTCCGGTCTCCC
DNA 2: TGGTGGCTACGACGGGATT
B20: AGGCGGG (DNA:RNA)
RNA: B1 RNA with U25A, C29G, A30G
DNA 1: CAATCTGAATTCCGGTCTCCC
DNA 2: TGGTGGCTACGACGGGATT
B21: UUCGGUU (DNA:RNA)
RNA: B1 RNA with G26U, G27C, C28G, C29G, A30U, G31U
DNA 1: CAATCTGAATTCCGGTCTCCC
DNA 2: TGGTGGCTACGACGGGATT
B22: CAACAGA (DNA:RNA)
RNA: B6 RNA with G25C, C26A, U27A, U28C, C31A
DNA 1: CAATCTGAATTCCGGTCTCCC
DNA 2: TGGTGGCTACGACGGGATT
B23: GGGGUCU (DNA:RNA)
RNA: B1 RNA with U25G, C28G, C29U, A30C, G31U
DNA 1: CAATCTGAATTCCGGTCTCCC
DNA 2: TGGTGGCTACGACGGGATT
B24: ACCGGGC (DNA:RNA)
RNA: B6 RNA with G25A, U27C, U28G, A29G
DNA 1: CAATCTGAATTCCGGTCTCCC
DNA 2: TGGTGGCTACGACGGGATT
B25: AAAAAGA (DNA:RNA)
RNA: B6 RNA with G25A, C26A, U27A, U28A, C31A
DNA 1: CAATCTGAATTCCGGTCTCCC
DNA 2: TGGTGGCTACGACGGGATT
B26: UGAUAAG (DNA:RNA)
RNA: B1 RNA with G27A, C28U, C29A
DNA 1: CAATCTGAATTCCGGTCTCCC
DNA 2: TGGTGGCTACGACGGGATT
B27: ACGUCGA (DNA:RNA)
RNA: B6 RNA with G25A, U27G, A29C, C31A
DNA 1: CAATCTGAATTCCGGTCTCCC
DNA 2: TGGTGGCTACGACGGGATT
B28: CGGUAGG (DNA:RNA)
RNA: B6 RNA with G25C, C26G, U27G, C31G
DNA 1: CAATCTGAATTCCGGTCTCCC
DNA 2: TGGTGGCTACGACGGGATT
B29: CGUUGUG (DNA:RNA)
RNA: B6 RNA with G25C, C26G, A29G, G30U, C31G
DNA 1: CAATCTGAATTCCGGTCTCCC
DNA 2: TGGTGGCTACGACGGGATT
B30: GCGAUGU (DNA:RNA)
RNA: B6 RNA with U27G, U28A, A29U, C31U
DNA 1: CAATCTGAATTCCGGTCTCCC
DNA 2: TGGTGGCTACGACGGGATT
B31: UCGAAAU (DNA:RNA)
RNA: B1 RNA with G26C, C28A, C29A, G31U
DNA 1: CAATCTGAATTCCGGTCTCCC
DNA 2: TGGTGGCTACGACGGGATT

biological target: T1, RBFOX1 RRM RbFoxmut (Fox-RRM*); test: EMSA; HiTS-Eq, 1 nM pool, 10 min; buffer printed only for the single-RNA assays: 10 mM Tris pH 7.5, 150 mM NaCl, 3.4 mM EDTA, 0.001% NP-40, 30 C; conditions: tags: His6 N-terminal (pET28a); label: 5' 32P
How it was run: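 Purified wild-type or mutant RbFox RRM at increasing concentrations was equilibrated with 1 nM of 5′-radiolabelled RNA carrying 7 randomized nucleotides for 10 min in 50 µL. Unbound RNA was separated by 8% native PAGE and sequenced. Relative association constants came from read-count changes of each RNA species compared with the control reaction, normalised to the cognate motif.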

Row | Binder | binding signal
1 | B1 | 0.102 KA relative to UGCAUGU
2 | B2 | 0.0827 KA relative to UGCAUGU
3 | B3 | 0.0614 KA relative to UGCAUGU
4 | B4 | 0.142 KA relative to UGCAUGU
5 | B5 | 0.119 KA relative to UGCAUGU
6 | B6 | 0.0988 KA relative to UGCAUGU
7 | B7 | 0.0942 KA relative to UGCAUGU
8 | B8 | 0.512 KA relative to UGCAUGU
9 | B9 | 0.0687 KA relative to UGCAUGU
10 | B10 | 0.108 KA relative to UGCAUGU
11 | B11 | 0.122 KA relative to UGCAUGU
12 | B12 | 0.14 KA relative to UGCAUGU
13 | B13 | 0.082 KA relative to UGCAUGU
14 | B14 | 0.0869 KA relative to UGCAUGU
15 | B15 | 0.114 KA relative to UGCAUGU
16 | B16 | 0.11 KA relative to UGCAUGU

Row | Binder | binding signal
17 | B17 | 0.0745 KA relative to UGCAUGU
18 | B18 | 0.149 KA relative to UGCAUGU
19 | B19 | 0.044 KA relative to UGCAUGU
20 | B20 | 0.119 KA relative to UGCAUGU
21 | B21 | 0.0538 KA relative to UGCAUGU
22 | B22 | 0.0476 KA relative to UGCAUGU
23 | B23 | 0.118 KA relative to UGCAUGU
24 | B24 | 0.0846 KA relative to UGCAUGU
25 | B25 | 0.0796 KA relative to UGCAUGU
26 | B26 | 0.115 KA relative to UGCAUGU
27 | B27 | 0.0987 KA relative to UGCAUGU
28 | B28 | 0.0838 KA relative to UGCAUGU
29 | B29 | 0.17 KA relative to UGCAUGU
30 | B30 | 0.151 KA relative to UGCAUGU
31 | B31 | 0.0789 KA relative to UGCAUGU
